Test results as given in publication PMC8970588.
No constants are given. Whether binding was seen depends on the method and setting. For part of these data: In cells and extracts the contact can be indirect. Some entries that bind do so weakly or less than the wild type. For part of these data: Sequences can lack the tags named with a protein.

Amino acid sequences for entries named in this document (tags omitted). A change or cut given only in a name is not applied to a line headed by its entry.
UniProt P10664: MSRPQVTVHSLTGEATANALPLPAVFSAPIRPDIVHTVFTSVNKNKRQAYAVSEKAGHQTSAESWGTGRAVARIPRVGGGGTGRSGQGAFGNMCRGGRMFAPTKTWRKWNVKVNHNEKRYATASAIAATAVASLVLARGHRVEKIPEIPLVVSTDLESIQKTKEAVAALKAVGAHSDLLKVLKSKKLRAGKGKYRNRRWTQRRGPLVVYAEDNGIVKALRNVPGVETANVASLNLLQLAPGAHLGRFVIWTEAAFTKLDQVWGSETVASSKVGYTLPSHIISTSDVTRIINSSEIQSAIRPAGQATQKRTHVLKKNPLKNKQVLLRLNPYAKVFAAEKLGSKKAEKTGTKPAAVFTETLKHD

Columns and labels:
[1] = target: T1, full-length Acl4, yeast two-hybrid fusion (S. cerevisiae) (UniProt Q03771); assay: two-hybrid; reporter strain PJ69-4A; bait fused to Gal4 DNA-binding domain, prey fused to Gal4 activation domain; growth on SC-Leu-Trp-His (HIS3) and SC-Leu-Trp-Ade (ADE2) plates, 3 days at 30°C
T1 sequence: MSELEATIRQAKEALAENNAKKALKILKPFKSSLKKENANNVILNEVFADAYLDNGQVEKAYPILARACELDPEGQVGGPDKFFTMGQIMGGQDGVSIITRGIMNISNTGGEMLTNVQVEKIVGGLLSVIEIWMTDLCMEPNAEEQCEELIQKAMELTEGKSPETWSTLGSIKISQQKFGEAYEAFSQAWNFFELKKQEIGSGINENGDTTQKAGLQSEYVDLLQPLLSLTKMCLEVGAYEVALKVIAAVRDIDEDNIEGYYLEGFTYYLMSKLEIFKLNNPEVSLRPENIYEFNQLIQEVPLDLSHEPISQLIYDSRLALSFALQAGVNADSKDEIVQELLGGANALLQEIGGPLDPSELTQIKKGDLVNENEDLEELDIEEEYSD

[2] = target: T2, full-length Cal4, yeast two-hybrid fusion (S. cerevisiae) (UniProt P47086); assay: as above
T2 sequence: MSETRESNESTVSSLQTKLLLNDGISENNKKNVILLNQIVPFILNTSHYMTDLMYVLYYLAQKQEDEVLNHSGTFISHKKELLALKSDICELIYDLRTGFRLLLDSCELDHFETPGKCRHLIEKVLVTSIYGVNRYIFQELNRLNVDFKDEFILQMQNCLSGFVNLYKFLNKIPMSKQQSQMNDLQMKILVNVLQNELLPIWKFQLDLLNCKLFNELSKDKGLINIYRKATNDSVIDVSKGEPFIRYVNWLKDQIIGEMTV

[3] = target: T3, Cal4 (amino acids 26–222), yeast two-hybrid fusion (S. cerevisiae) (UniProt P47086); assay: as above
T3 sequence: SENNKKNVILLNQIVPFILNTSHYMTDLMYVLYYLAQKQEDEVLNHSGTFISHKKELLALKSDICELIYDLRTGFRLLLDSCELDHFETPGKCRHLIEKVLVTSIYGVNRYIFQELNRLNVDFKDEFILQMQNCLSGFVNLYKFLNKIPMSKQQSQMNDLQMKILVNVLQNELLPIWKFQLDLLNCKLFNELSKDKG

[4] = target: T4, Btt1 (amino acids 38–129), yeast two-hybrid fusion (S. cerevisiae) (UniProt P40314); assay: as above
T4 sequence: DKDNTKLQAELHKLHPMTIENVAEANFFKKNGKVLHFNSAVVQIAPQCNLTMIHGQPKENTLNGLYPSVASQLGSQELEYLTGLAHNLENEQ

[5] = target: T5, Not1 (amino acids 21–153), Caf130-interacting domain, yeast two-hybrid fusion (S. cerevisiae) (UniProt P25655); assay: as above
T5 sequence: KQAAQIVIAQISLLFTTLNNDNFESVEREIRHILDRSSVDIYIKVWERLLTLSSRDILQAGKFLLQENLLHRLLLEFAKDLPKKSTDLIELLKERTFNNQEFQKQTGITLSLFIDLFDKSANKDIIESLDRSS

[6] = target: T6, full-length Btt1, yeast two-hybrid fusion (S. cerevisiae) (UniProt P40314); assay: as above
T6 sequence: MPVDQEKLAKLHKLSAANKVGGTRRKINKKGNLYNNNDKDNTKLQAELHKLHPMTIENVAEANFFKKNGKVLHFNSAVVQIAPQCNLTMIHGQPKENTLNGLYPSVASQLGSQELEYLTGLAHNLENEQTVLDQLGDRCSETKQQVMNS

[7] = target: full-length Not1, yeast two-hybrid fusion (S. cerevisiae) (UniProt P25655); assay: as above
[8] = target: T7, Caf130-GFP (S. cerevisiae) (UniProt P53280); assay: co-IP; GFP-Trap magnetic agarose beads capture the C-terminally GFP-tagged bait from yeast cell lysate (2 hr at 4°C; 50 mM Tris-HCl pH 7.5, 100 mM NaCl, 1.5 mM MgCl2, 5% glycerol, 0.1% NP-40; nine washes); C-terminally TAP-tagged prey detected by Western blot (anti-protA); strains with nontagged bait as background control
T7 sequence: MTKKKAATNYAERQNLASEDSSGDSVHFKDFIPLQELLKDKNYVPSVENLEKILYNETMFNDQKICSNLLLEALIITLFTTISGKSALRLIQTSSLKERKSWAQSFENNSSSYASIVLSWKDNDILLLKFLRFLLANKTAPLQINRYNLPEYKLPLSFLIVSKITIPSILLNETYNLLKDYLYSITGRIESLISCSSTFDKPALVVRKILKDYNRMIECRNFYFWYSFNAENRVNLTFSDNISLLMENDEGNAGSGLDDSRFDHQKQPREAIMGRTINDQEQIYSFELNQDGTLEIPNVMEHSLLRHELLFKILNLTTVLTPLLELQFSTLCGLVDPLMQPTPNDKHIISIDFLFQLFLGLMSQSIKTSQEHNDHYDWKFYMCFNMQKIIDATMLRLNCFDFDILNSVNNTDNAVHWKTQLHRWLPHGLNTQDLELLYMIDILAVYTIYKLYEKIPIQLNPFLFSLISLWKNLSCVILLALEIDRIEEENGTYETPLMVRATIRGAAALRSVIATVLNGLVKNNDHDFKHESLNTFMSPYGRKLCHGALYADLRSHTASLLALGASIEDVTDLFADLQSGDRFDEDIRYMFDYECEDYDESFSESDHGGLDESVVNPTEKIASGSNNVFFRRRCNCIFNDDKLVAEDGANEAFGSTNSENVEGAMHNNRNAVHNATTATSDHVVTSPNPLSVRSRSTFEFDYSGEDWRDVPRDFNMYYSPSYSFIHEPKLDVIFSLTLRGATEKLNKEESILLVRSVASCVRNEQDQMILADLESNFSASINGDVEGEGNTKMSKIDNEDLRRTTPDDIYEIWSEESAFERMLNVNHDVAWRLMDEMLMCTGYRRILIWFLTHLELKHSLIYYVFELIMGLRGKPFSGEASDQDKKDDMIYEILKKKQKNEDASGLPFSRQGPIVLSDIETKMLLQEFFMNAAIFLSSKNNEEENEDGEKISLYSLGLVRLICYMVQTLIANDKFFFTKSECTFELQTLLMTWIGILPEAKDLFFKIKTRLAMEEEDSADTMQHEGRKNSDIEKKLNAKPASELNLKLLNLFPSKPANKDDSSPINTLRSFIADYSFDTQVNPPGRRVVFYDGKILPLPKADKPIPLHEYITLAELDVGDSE

[9] = target: T8, Egd2-GFP (S. cerevisiae) (UniProt P38879); assay: as above
T8 sequence: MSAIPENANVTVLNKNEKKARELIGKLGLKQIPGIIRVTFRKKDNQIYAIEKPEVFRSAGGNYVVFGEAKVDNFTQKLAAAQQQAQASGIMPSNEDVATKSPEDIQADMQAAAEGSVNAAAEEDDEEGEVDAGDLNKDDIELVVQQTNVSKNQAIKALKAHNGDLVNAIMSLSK

[10] = target: Not1.154C-GFP (Not1 lacking the first 153 amino acids, C-terminally GFP-tagged) (S. cerevisiae) (UniProt P25655); assay: as above

“Rpl4a, yeast two-hybrid fusion (from UniProt P10664 1-362)” was tested, and the binding [1] was “binds”.

For “Rpl4a.W109C, yeast two-hybrid fusion (from UniProt P10664 1-362)”, the binding [1] was “binds”.

B1: full-length Caf130, yeast two-hybrid fusion (protein, UniProt P53280 1-1122)
chain: MTKKKAATNYAERQNLASEDSSGDSVHFKDFIPLQELLKDKNYVPSVENLEKILYNETMFNDQKICSNLLLEALIITLFTTISGKSALRLIQTSSLKERKSWAQSFENNSSSYASIVLSWKDNDILLLKFLRFLLANKTAPLQINRYNLPEYKLPLSFLIVSKITIPSILLNETYNLLKDYLYSITGRIESLISCSSTFDKPALVVRKILKDYNRMIECRNFYFWYSFNAENRVNLTFSDNISLLMENDEGNAGSGLDDSRFDHQKQPREAIMGRTINDQEQIYSFELNQDGTLEIPNVMEHSLLRHELLFKILNLTTVLTPLLELQFSTLCGLVDPLMQPTPNDKHIISIDFLFQLFLGLMSQSIKTSQEHNDHYDWKFYMCFNMQKIIDATMLRLNCFDFDILNSVNNTDNAVHWKTQLHRWLPHGLNTQDLELLYMIDILAVYTIYKLYEKIPIQLNPFLFSLISLWKNLSCVILLALEIDRIEEENGTYETPLMVRATIRGAAALRSVIATVLNGLVKNNDHDFKHESLNTFMSPYGRKLCHGALYADLRSHTASLLALGASIEDVTDLFADLQSGDRFDEDIRYMFDYECEDYDESFSESDHGGLDESVVNPTEKIASGSNNVFFRRRCNCIFNDDKLVAEDGANEAFGSTNSENVEGAMHNNRNAVHNATTATSDHVVTSPNPLSVRSRSTFEFDYSGEDWRDVPRDFNMYYSPSYSFIHEPKLDVIFSLTLRGATEKLNKEESILLVRSVASCVRNEQDQMILADLESNFSASINGDVEGEGNTKMSKIDNEDLRRTTPDDIYEIWSEESAFERMLNVNHDVAWRLMDEMLMCTGYRRILIWFLTHLELKHSLIYYVFELIMGLRGKPFSGEASDQDKKDDMIYEILKKKQKNEDASGLPFSRQGPIVLSDIETKMLLQEFFMNAAIFLSSKNNEEENEDGEKISLYSLGLVRLICYMVQTLIANDKFFFTKSECTFELQTLLMTWIGILPEAKDLFFKIKTRLAMEEEDSADTMQHEGRKNSDIEKKLNAKPASELNLKLLNLFPSKPANKDDSSPINTLRSFIADYSFDTQVNPPGRRVVFYDGKILPLPKADKPIPLHEYITLAELDVGDSE
B1 was tested, and the binding [2] was “binds”, the binding [3] was “binds” and the binding [4] was “binds”. For the same molecule, the binding [5] was “binds”, the binding [6] was “binds” and the binding [7] was “binds”.

B2: Btt1-TAP (protein, UniProt P40314 1-149)
chain: MPVDQEKLAKLHKLSAANKVGGTRRKINKKGNLYNNNDKDNTKLQAELHKLHPMTIENVAEANFFKKNGKVLHFNSAVVQIAPQCNLTMIHGQPKENTLNGLYPSVASQLGSQELEYLTGLAHNLENEQTVLDQLGDRCSETKQQVMNS
With B2 the binding [8] was “binds”.

B3: Cal4-TAP (protein, UniProt P47086 1-261)
chain: MSETRESNESTVSSLQTKLLLNDGISENNKKNVILLNQIVPFILNTSHYMTDLMYVLYYLAQKQEDEVLNHSGTFISHKKELLALKSDICELIYDLRTGFRLLLDSCELDHFETPGKCRHLIEKVLVTSIYGVNRYIFQELNRLNVDFKDEFILQMQNCLSGFVNLYKFLNKIPMSKQQSQMNDLQMKILVNVLQNELLPIWKFQLDLLNCKLFNELSKDKGLINIYRKATNDSVIDVSKGEPFIRYVNWLKDQIIGEMTV
In the case of B3, the binding [8] is reported as “binds”, the binding [9] is reported as “no binding” and the binding [10] is reported as “no binding”.
